Laboratory results from publication PMC3547732 (Chemistry Central Journal, 2012).
Like-named read-outs stand apart in the source and are kept apart here.

Legend:
[1] = Aqueous solubility measurement (shaker, UV at 242 nm); details: for Solubility in phosphate buffer pH7 (SsolpH7): phosphate buffer (head: pH7; method: pH 6.8), 37°C, shaken 24 h
[2] = pH 6.8

| SMILES | Solubility in phosphate buffer pH7 (SsolpH7) [2] [mg/ml] | further results |
| --- | --- | --- |
| CC(C)c1c(C(=O)Nc2ccccc2)c(-c2ccccc2)c(-c2ccc(F)cc2)n1CC[C@@H](O)C[C@@H](O)CC(=O)[O-].CC(C)c1c(C(=O)Nc2ccccc2)c(-c2ccccc2)c(-c2ccc(F)cc2)n1CC[C@@H](O)C[C@@H](O)CC(=O)[O-].CCCCO.[Ca+2] [Solvate VIII] |  | Solubility in phosphate buffer pH7 (SsolpH7) ([1]; listed as Solvate- VIII): 0.387 mg/ml; Solubility in phosphate buffer pH7 (SsolpH7) ([1]; listed as solvate-VIII): 0.374±0.06 mg/ml; solubility ranking among ATC forms ([1]; phosphate buffer pH 6.8, 37°C): most soluble |
| CC(C)c1c(C(=O)Nc2ccccc2)c(-c2ccccc2)c(-c2ccc(F)cc2)n1CC[C@@H](O)C[C@@H](O)CC(=O)[O-].CC(C)c1c(C(=O)Nc2ccccc2)c(-c2ccccc2)c(-c2ccc(F)cc2)n1CC[C@@H](O)C[C@@H](O)CC(=O)[O-].CCO.[Ca+2] [Solvate III] | 0.292 |  |
| CC(C)(C)O.CC(C)c1c(C(=O)Nc2ccccc2)c(-c2ccccc2)c(-c2ccc(F)cc2)n1CC[C@@H](O)C[C@@H](O)CC(=O)[O-].CC(C)c1c(C(=O)Nc2ccccc2)c(-c2ccccc2)c(-c2ccc(F)cc2)n1CC[C@@H](O)C[C@@H](O)CC(=O)[O-].CC(C)c1c(C(=O)Nc2ccccc2)c(-c2ccccc2)c(-c2ccc(F)cc2)n1CC[C@@H](O)C[C@@H](O)CC(=O)[O-].CC(C)c1c(C(=O)Nc2ccccc2)c(-c2ccccc2)c(-c2ccc(F)cc2)n1CC[C@@H](O)C[C@@H](O)CC(=O)[O-].[Ca+2].[Ca+2] [Solvate IV] |  | Solubility in phosphate buffer pH7 (SsolpH7) [1]: 0.225 mg/ml |
| CC(C)=O.CC(C)=O.CC(C)c1c(C(=O)Nc2ccccc2)c(-c2ccccc2)c(-c2ccc(F)cc2)n1CC[C@@H](O)C[C@@H](O)CC(=O)[O-].CC(C)c1c(C(=O)Nc2ccccc2)c(-c2ccccc2)c(-c2ccc(F)cc2)n1CC[C@@H](O)C[C@@H](O)CC(=O)[O-].CC(C)c1c(C(=O)Nc2ccccc2)c(-c2ccccc2)c(-c2ccc(F)cc2)n1CC[C@@H](O)C[C@@H](O)CC(=O)[O-].CC(C)c1c(C(=O)Nc2ccccc2)c(-c2ccccc2)c(-c2ccc(F)cc2)n1CC[C@@H](O)C[C@@H](O)CC(=O)[O-].CCO.[Ca+2].[Ca+2] [Solvate VI] | 0.245 |  |
| CC(C)c1c(C(=O)Nc2ccccc2)c(-c2ccccc2)c(-c2ccc(F)cc2)n1CC[C@@H](O)C[C@@H](O)CC(=O)[O-].CC(C)c1c(C(=O)Nc2ccccc2)c(-c2ccccc2)c(-c2ccc(F)cc2)n1CC[C@@H](O)C[C@@H](O)CC(=O)[O-].CO.[Ca+2] [Solvate V] | 0.341 |  |
| CC(C)O.CC(C)c1c(C(=O)Nc2ccccc2)c(-c2ccccc2)c(-c2ccc(F)cc2)n1CC[C@@H](O)C[C@@H](O)CC(=O)[O-].CC(C)c1c(C(=O)Nc2ccccc2)c(-c2ccccc2)c(-c2ccc(F)cc2)n1CC[C@@H](O)C[C@@H](O)CC(=O)[O-].CC(C)c1c(C(=O)Nc2ccccc2)c(-c2ccccc2)c(-c2ccc(F)cc2)n1CC[C@@H](O)C[C@@H](O)CC(=O)[O-].CC(C)c1c(C(=O)Nc2ccccc2)c(-c2ccccc2)c(-c2ccc(F)cc2)n1CC[C@@H](O)C[C@@H](O)CC(=O)[O-].[Ca+2].[Ca+2] [Solvate I] | 0.374 |  |
| C1CCOC1.CC(C)c1c(C(=O)Nc2ccccc2)c(-c2ccccc2)c(-c2ccc(F)cc2)n1CC[C@@H](O)C[C@@H](O)CC(=O)[O-].CC(C)c1c(C(=O)Nc2ccccc2)c(-c2ccccc2)c(-c2ccc(F)cc2)n1CC[C@@H](O)C[C@@H](O)CC(=O)[O-].[Ca+2] [Solvate II] | 0.192 |  |
| CC(C)c1c(C(=O)Nc2ccccc2)c(-c2ccccc2)c(-c2ccc(F)cc2)n1CC[C@@H](O)C[C@@H](O)CC(=O)[O-].CC(C)c1c(C(=O)Nc2ccccc2)c(-c2ccccc2)c(-c2ccc(F)cc2)n1CC[C@@H](O)C[C@@H](O)CC(=O)[O-].CC(C)c1c(C(=O)Nc2ccccc2)c(-c2ccccc2)c(-c2ccc(F)cc2)n1CC[C@@H](O)C[C@@H](O)CC(=O)[O-].CC(C)c1c(C(=O)Nc2ccccc2)c(-c2ccccc2)c(-c2ccc(F)cc2)n1CC[C@@H](O)C[C@@H](O)CC(=O)[O-].CCO.O.O.[Ca+2].[Ca+2] [Solvate VII] | 0.185 |  |
